# From PubChem BioAssay AID463173 (ICCB-Longwood Screening Facility, Harvard Medical School, 2010)
# The whole screen tested about 52,000 compounds, of which about 1,700 (3.3%) were called active. Rule as the data show it: active = survival mostly below about 52% (no sharp cut-off); inactive = mostly above about 56%. This is one part of the list.
# Test system: Wild type
# Test: S. aureus survival, RN4220 and DeltatarO strains – OD600, teichoic acid synthesis inhibitors, primary screen (AID 463173)
# Conditions: S. aureus RN4220 wild type/DeltatarO growth, OD600, 18 h, hits give low values, screened at 18.75 µg/mL (by protocol)
row,Compound,survival
1,CCCOc1ccc(Oc2nc(NCC(C)C)nc(N3CCOCC3)n2)nn1,inactive: 84%
2,Clc1ccc(CSc2ncn[nH]2)cc1,inactive: 114%
3,Cn1cc(C(=O)N2CCN(c3cccc(C(F)(F)F)c3)CC2)c2c3ccccc3n(C)c2c1=O,inactive: 31%
4,COc1ccccc1N1CCN(c2nc(-c3ccc(C)cc3)nc3ccccc23)CC1,inactive: 72%
5,CCOc1ccc(OCC)c(NS(=O)(=O)c2c(C(=O)N3CCC(C)CC3)c(C)n(C)c2C)c1,active: 0%
6,COc1ccc(N2CC(NC(=O)c3ccc4c(c3)OCO4)CC2=O)cc1 (centres undefined),inactive: 129%
7,CCOc1ccc(NC(=O)CN(c2ccc(Cl)cc2C)S(=O)(=O)c2ccccc2)cc1,inactive: 77%
8,COc1ccc(NC(=O)CN(c2ccc(C)cc2)S(=O)(=O)c2cccc3nonc23)cc1OC,inactive: 80%
9,O=C(Nc1ccc(OCc2cc(=O)n3c4c(sc3n2)CCCC4)cc1)c1ccccc1,inactive: 78%
10,CC1CCc2nc3ncn(Cc4ccccc4F)c(=O)c3cc2C1 (centres undefined),inactive: 53%
11,Cc1ccc(-n2c(SCC(=O)O)nc3sc4c(c3c2=O)CCCC4)cc1,inactive: 73%
12,CCOc1ccc(NC(=O)c2cnc(N3CCCCC3)c3ccccc23)cc1,inactive: 70%
13,Cc1cccc(C(=O)Nc2ccccc2C#N)c1,inactive: 102%
14,COc1ccc(NC(=O)Cn2cnc3c(oc4ccccc43)c2=O)cc1OC,inactive: 83%
15,CC(C)NC(=O)C1CCC(Cn2c(=O)c3sccc3n(CC(=O)NCc3ccccc3)c2=O)CC1 (centres undefined),inactive: 77%
16,CCCOc1c(Cl)cc(C(=O)N(Cc2cccc(OC)c2)C2CCS(=O)(=O)C2)cc1Cl (centres undefined),inactive: 96%
17,O=C(NCc1ccc2c(c1)OCO2)c1ccc2c(c1)N(Cc1ccccc1)C(=O)c1ccccc1S2=O (centres undefined),inactive: 96%
18,CCOC(=O)c1c(-c2ccccc2)csc1NC(=O)c1cc(-c2ccc(F)cc2)on1,inactive: 90%
19,N#Cc1cc2sc3nc4ccccc4n3c2cc1C#N,inactive: 101%
20,CC(C)n1cnc(S(=O)(=O)N2CCCC(C(=O)NCc3ccccc3Cl)C2)c1 (centres undefined),inactive: 101%
21,CN(c1ccccc1)S(=O)(=O)c1nnc(NC(=O)c2ccccc2)s1,inactive: 42%
22,CCOc1ccc(C(=O)c2c(N)c(-c3nc(-c4ccc5c(c4)OCO5)cs3)c3ccccn23)cc1,inactive: 110%
23,COC(=O)Cn1c(=O)c2cccn2c2cccnc21,inactive: 122%

row,Compound,survival
1,Cc1cc(C(=O)Nc2ccc(C(C)C)cc2)c2c(C)nn(-c3ccccc3)c2n1,inactive: 80%
2,Cc1ccsc1CN(C(=O)c1oc2cc(Br)ccc2c1C)C1CCS(=O)(=O)C1 (centres undefined),inactive: 68%
3,O=C(CS(=O)CC(=O)Nc1cccc2c1CCCC2)Nc1ccc(F)cc1 (centres undefined),inactive: 105%
4,COc1cccc(CNC(=O)CSc2c3c(nc4cc(Cl)ccc24)CCCC3)c1,inactive: 78%
5,CN(C)CCCN(C(=O)c1ccc2c(c1)OCCO2)c1nc2ccccc2s1,inactive: 87%
6,Cc1cccc2c(=O)cc(CSc3ccccc3NC(=O)c3cccc(F)c3)[nH]c12,inactive: 73%
7,COc1ccccc1CNc1ccc(-c2nc(-c3ccco3)no2)cc1[N+](=O)[O-],inactive: 67%
8,COc1ccc(Cn2c(=O)c3oc4ccccc4c3n(Cc3cccc(C)c3)c2=O)cc1,inactive: 81%
9,CCOc1ccccc1NC(=O)Cn1cc(C(=O)c2ccc(Cl)cc2)c(=O)c2ccc(C)nc21,inactive: 85%
10,Cc1cc2nn(-c3ccc(F)cc3)nc2cc1NC(=O)c1cccc2ccccc12,inactive: 76%
11,O=C(Nc1nnc(S(=O)(=O)N2CCOCC2)s1)c1ccccc1Cl,inactive: 74%
12,CC(C)CCNC(=O)c1ccc2c(c1)N(Cc1cccc(Cl)c1)C(=O)c1ccccc1S2,inactive: 70%
13,CCCC(=O)n1nc(-c2ccco2)nc1NCc1ccccc1Cl,inactive: 89%
14,Cc1cc(C)n2ncc(C(=O)Nc3ccc(C)c(C)c3)c2n1,inactive: 117%
15,CC(=O)Nc1ccc(NC(=O)C2CCCN2S(=O)(=O)c2ccc3c(c2)CCCC(=O)N3)cc1 (centres undefined),inactive: 65%
16,COc1ccc(OC)c(CCNC(=O)c2cc3c(=O)oc4ccc(C)cc4c3s2)c1,inactive: 84%
17,Cc1ccc(OCC(=O)Nc2ccc3c(c2)nc(CCNC(=O)c2ccco2)n3C)cc1,inactive: 137%
18,COc1ccc(N2CCN(C(=O)CN3C(=O)CSc4c3c(C)nn4-c3ccccc3)CC2)cc1,inactive: 85%
19,O=C(Nc1ccc2oc(-c3cccnc3)nc2c1)c1ccc(-c2ccc(OC(F)(F)F)cc2)o1,inactive: 112%
20,CN(C)N=Nc1ccc(S(N)(=O)=O)cc1,inactive: 92%
21,O=C(Nc1ccc2nc(SCc3ccccc3)sc2c1)c1ccccc1F,inactive: 88%
22,CC1(C)CC(NC(=O)CCCC(=O)O)CC(C)(C)N1,inactive: 107%
23,O=C(Nc1ccc(F)c(Cl)c1)c1cc(S(=O)(=O)N2CCc3ccccc3C2)ccc1F,inactive: 80%

row,Compound,survival
1,COCCCNc1nc2cc(OC)c(OC)cc2c2nc(-c3ccccc3)nn12,inactive: 65%
2,Cc1ccccc1N1CC(C(=O)Nc2ccc(Br)cc2)CC1=O (centres undefined),inactive: 134%
3,COc1ccc(CNC(=O)CN2N=C(c3ccccc3)CCC2=O)c(OC)c1,inactive: 78%
4,CCn1c(=O)c(=O)n(CC)c2cc(N3CCCCC3)c(NC(=O)c3ccc(Cl)cc3)cc21,inactive: 127%
5,COc1ccc(-c2nnn(CC(=O)N(CC(=O)NCc3ccccc3)c3ccc4c(c3)OCCO4)n2)cc1OC,inactive: 102%
6,Cc1nnc(N2CCCC(C(=O)NCc3ccccc3F)C2)c2nn(-c3ccc(Cl)cc3)c(C)c12 (centres undefined),inactive: 68%
7,COc1cc(Cl)c(C)cc1NC(=O)c1ccc2c(SCC(=O)O)c3c(nc2c1)CCCC3,inactive: 52%
8,O=C(CSc1n[nH]c(-c2ccccc2)n1)NCCCc1ccccc1,inactive: 69%
9,Cc1ccc(-n2nnc(-c3nsc(NC(=O)c4cccc(Cl)c4)n3)c2C)cc1C,inactive: 67%
10,COc1ccc(C(=O)NCc2nnc(SCC(=O)Nc3ccccc3)n2-c2ccccc2)cc1,inactive: 77%
11,O=C(Cn1c(=O)c2ccccc2n(CC(=O)Nc2ccc(F)cc2F)c1=O)NCCc1ccccc1,inactive: 81%
12,CCN(CC)CCNC(=O)c1ccc2c(c1)NC(=O)C(CS(=O)(=O)Cc1cccc(Br)c1)N2 (centres undefined),inactive: 134%
13,COc1ccc(-c2nc3cc(C(C)C)ccc3o2)cc1NC(=O)COc1ccc(C)cc1C,inactive: 59%
14,Cc1nc(SCC(=O)Nc2c(C)nn(C)c2C)c2cnn(-c3ccccc3)c2n1,inactive: 120%
15,COc1ccc(NC(=O)CSc2ncccc2C(=O)O)cc1OC,inactive: 78%
16,Cc1ccc(C)c(Nc2ncnc3onc(C)c23)c1,inactive: 71%
17,COc1ccc(NC(=O)CCSc2nc(-c3ccco3)cc(C(F)(F)F)n2)cc1,inactive: 72%
18,CCN(C(=O)c1cc2c(=O)oc3ccc(C)cc3c2s1)c1cc(OC)ccc1OC,inactive: 89%
19,CCOc1ccc2[nH]c(=O)c(CN(CCOC)C(=O)NC3CCCCC3)cc2c1,inactive: 102%
20,CCN(CC)c1ccc(CN(C(=O)Cc2coc3ccc(C)cc23)C2CCS(=O)(=O)C2)cc1 (centres undefined),inactive: 90%
21,CCOc1cccc(CC(=O)N2CCc3c([nH]c4ccccc34)C2c2ccccc2)c1OCC (centres undefined),inactive: 81%
22,CCC1CCCCN1CCCNC(=O)c1ccc2c(c1)N(Cc1ccccc1)C(=O)c1ccccc1S2(=O)=O (centres undefined),inactive: 139%
23,CCn1nc(C)c2c(-c3ccccc3)cc(=O)n(C(C)C(=O)NCc3cccc(OC)c3)c21 (centres undefined),inactive: 72%

row,Compound,survival
1,Cc1ccc(-c2nc3scc(CCNS(=O)(=O)c4ccc(F)c(C)c4)n3n2)cc1,inactive: 83%
2,CCc1ccc(NC(=O)c2cnn3c(C(F)F)cc(C)nc23)cc1,inactive: 105%
3,CCc1ccc(OCCCn2c(-c3ccc(Cl)cc3)nc3ccccc3c2=O)cc1,inactive: 52%
4,CCCN1C(=O)CSC1=Nc1ccccc1,inactive: 101%
5,Cc1ccc(OCC(=O)OCc2cc(=O)n3nc(C4CCCCC4)sc3n2)cc1C,inactive: 79%
6,O=C1CC(c2ccccc2)Sc2nc(-c3ccc(F)cc3)nn21 (centres undefined),inactive: 67%
7,O=C(c1[nH]c2ccccc2c1Sc1ccc(Cl)cc1)N1CCCCC1,inactive: 48%
8,CCC1CN(C(=O)N2CCC(C(=O)NCCc3ccccc3C)CC2)c2ccccc2O1 (centres undefined),inactive: 118%
9,Cc1ccc(Cl)cc1NC(=O)CSc1ccc(C(=O)O)cn1,inactive: 88%
10,CCN(CC)c1ccc(NC(=O)c2cc(C)nc3c2c(C)nn3-c2cccc(F)c2)c(C)c1,inactive: 73%
11,c1ccc(-c2nnc(CN3CCN(c4ccccn4)CC3)o2)cc1,inactive: 79%
12,O=C(NCCSCc1cccc(Cl)c1)C1CCN(S(=O)(=O)Cc2ccccc2)CC1,inactive: 80%
13,CCN(Cc1ccccc1)Cc1c(O)ccc2c(=O)c(-c3ccccc3)c(C(F)(F)F)oc12,inactive: 123%
14,CCOc1ccccc1CNCc1c(C(=O)O)c(C)n(Cc2ccc(Cl)cc2)c1C,inactive: 89%
15,COc1ccc(C(=O)Nc2cc(C(C)C)c(O)c(S(=O)(=O)c3ccc(Cl)cc3)c2C)cc1,inactive: 72%
16,COc1ccc2c(c1)cc1c(=O)n(CC(=O)NCc3ccco3)nc(C)n12,inactive: 78%
17,COc1ccccc1N(CC(=O)NCCSCc1ccccc1)S(C)(=O)=O,inactive: 75%
18,CCCCc1nn2c(=O)cc(COC(=O)c3cccc(OC)c3)nc2s1,inactive: 127%
19,CCc1nnc2c(Nc3cccc(C(C)=O)c3)nc3ccccc3n12,inactive: 76%
20,CC(C)c1ccccc1NC(=O)c1cccs1,inactive: 112%
